The supplement of paper PMC4166925
± gives the standard deviation of the averaged measurements. In all, about 33,000 sequences were measured (“E-score (dimensionless, -0.5 to 0.5)”: median about -0.046, highest 2% from about 0.36 on). Some of the results follow.

system: T1, SpTbr T-box DNA-binding domain (GST fusion); assay: PBM E-score of 8-mer (E-score (dimensionless, -0.5 to 0.5)); Tbr is Tbrain of the sea star Patiria miniata (Pm) or the sea urchin Strongylocentrotus purpuratus (Sp); higher = stronger binding preference; most listed sequences are background and not binding sites; details: the construct has about 5 more residues each side
T1 sequence: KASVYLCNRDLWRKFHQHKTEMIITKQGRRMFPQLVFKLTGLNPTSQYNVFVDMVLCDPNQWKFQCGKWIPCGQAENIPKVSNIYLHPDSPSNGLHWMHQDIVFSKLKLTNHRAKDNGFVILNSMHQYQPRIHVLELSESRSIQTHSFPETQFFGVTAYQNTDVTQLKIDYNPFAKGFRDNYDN
In short: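 Primer extension turned Universal Agilent oligonucleotide arrays double-stranded. They were incubated with 200 nM protein in PBS (pH 7.5); the protein was a GST-fused Tbr T-box DNA-binding domain expressed in BL21 E. coli at 20 °C and purified on glutathione. Every ungapped 8-mer was scored from the scanned, quantified probe intensities, and the Universal PBM Analysis Suite gave each an enrichment E-score averaged over duplicate arrays.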

| Sequence | PBM E-score of 8-mer |
| --- | --- |
| AGCGAGAC | 0.115 ± 0.0084 |
| CTCATGCC | -0.069 ± 0.02 |
| ACGACGGG | 0.0408 ± 0.031 |
| CAGTAACC | 0.048 ± 0.029 |
| GGTTATCA | 0.0778 ± 0.034 |
| AACTTTGT | 0.152 ± 0.041 |
| CTTCTGGC | -0.0984 ± 0.022 |
| ATTCCCCA | 0.0621 ± 0.03 |
| CACGGGCA | -0.117 ± 0.0051 |
| ATCACTTC | 0.226 ± 0.033 |
| AGACCCTC | -0.0134 ± 0.048 |
| CCCTTAAC | -0.0411 ± 0.058 |
| CGTGGAAG | 0.0205 ± 0.034 |
| CGCCTTAA | 0.156 ± 0.016 |
| GGGGGACA | -0.123 ± 0.068 |
| CATTCACG | 0.238 ± 0.024 |
| GGTGTGGA | 0.456 ± 0.014 |
| GGACCTAA | -0.0149 ± 0.034 |
| CGCCGTGA | 0.172 ± 0.013 |
| CACGGGGC | -0.0714 ± 0.031 |
| AGAGGTCA | -0.136 ± 0.032 |
| ATATAATA | -0.263 ± 0.031 |
| GGGTAACA | 0.246 ± 0.05 |
| CACGCGTC | 0.274 ± 0.013 |
| CGCCATGC | 0.0353 ± 0.036 |

| Sequence | PBM E-score of 8-mer |
| --- | --- |
| CAGAATGA | -0.255 ± 0.026 |
| GAAATGAA | 0.162 ± 0.072 |
| AACCATTG | -0.0476 ± 0.065 |
| ATCCTTGC | -0.117 ± 0.011 |
| CCAAAGCA | -0.145 ± 0.076 |
| AATTACCC | -0.123 ± 0.0094 |
| CCAGAACC | -0.245 ± 0.028 |
| CCCTAGCA | -0.123 ± 0.094 |
| GCTCTGCC | -0.0292 ± 0.13 |
| CGACGAAG | 0.143 ± 0.04 |
| CTATAGAC | -0.192 ± 0.046 |
| GTGTAGAA | 0.174 ± 0.014 |
| AGCTTGGG | -0.161 ± 0.031 |
| GGTTTGCA | 0.154 ± 0.017 |
| ACTACCTA | -0.133 ± 0.079 |
| CATTGAGA | 0.16 ± 0.011 |
| GGATTCCC | -0.22 ± 0.0035 |
| GGGTTAAC | -0.00766 ± 0.087 |
| AGCAAACA | 0.0728 ± 0.028 |
| CAGCGTCA | 0.0369 ± 0.11 |
| CCAGGTCA | -0.0658 ± 0.051 |
| TGGCTCAA | 0.0278 ± 0.017 |
| AATCTGAT | -0.25 ± 0.015 |
| CCTCTTAC | 0.04709 ± 0.00011 |
| CGTTCAAA | -0.0474 ± 0.14 |

| Sequence | PBM E-score of 8-mer |
| --- | --- |
| CATTGCGA | 0.0015 ± 0.016 |
| AGTTCCTG | 0.00651 ± 0.031 |
| ACCAGTTA | -0.142 ± 0.021 |
| CGCTGTCA | 0.157 ± 0.058 |
| AATCCTCG | 0.0312 ± 0.0083 |
| AGTGTCTC | 0.106 ± 0.089 |
| CCGTTTAA | -0.187 ± 0.042 |
| GATGTTGC | -0.0546 ± 0.085 |
| ACAGACTC | -0.179 ± 0.059 |
| GCTGCCAA | 0.0847 ± 0.029 |
| CACCCACG | 0.213 ± 0.018 |
| ATATGGCA | -4e-05 ± 0.019 |
| CACACAGG | 0.244 ± 0.0081 |
| GTGTGTGA | 0.4221 ± 0.003 |
| GAATGGTA | -0.0525 ± 0.073 |
| ATGGCAAC | 0.0697 ± 0.05 |
| AAATCGTA | 0.0245 ± 0.021 |
| GTTCTTCA | -0.0554 ± 0.0092 |
| CACTGCAC | 0.128 ± 0.0054 |
| AGTTCTTG | -0.0811 ± 0.038 |
| CGGAATAA | -0.103 ± 0.1 |
| ATGGTAAA | -0.214 ± 0.021 |
| AAGATCGT | -0.094 ± 0.097 |
| CTTTTTAC | -0.0935 ± 0.039 |
| CAGGGTCG | 0.205 ± 0.023 |

| Sequence | PBM E-score of 8-mer |
| --- | --- |
| CTCTTTTA | 0.02 ± 0.0092 |
| AAAGATCC | -0.0364 ± 0.046 |
| AGGTTCCG | -0.246 ± 0.069 |
| TGCACAAA | 0.00354 ± 0.028 |
| AGCCATAC | -0.212 ± 0.021 |
| CCCGGATC | -0.116 ± 0.029 |
| AAGGGGGG | -0.358 ± 0.083 |
| ACTAGGGC | -0.202 ± 0.049 |
| CGCCGCCG | 0.112 ± 0.0035 |
| ATCCAAAG | -0.16 ± 0.022 |
| CACAGCGC | 0.0949 ± 0.014 |
| GTCCTAAC | -0.1805 ± 0.0011 |
| CAATCGTA | -0.0908 ± 0.035 |
| CGGTCTAG | -0.3115 ± 0.0011 |
| GGAGGGCA | -0.0498 ± 0.049 |
| AAAATACG | -0.0435 ± 0.035 |
| CAATTTCA | -0.0118 ± 0.036 |
| ATGGATGC | -0.211 ± 0.072 |
| CAGTACTG | -0.223 ± 0.099 |
| ATTAACCG | -0.163 ± 0.02 |
| GACTCTAC | -0.189 ± 0.014 |
| TACTGGAA | -0.236 ± 0.024 |
| AAGTTAGG | -0.254 ± 0.055 |
| AGTGTCAG | 0.371 ± 0.0097 |
| ACTCCATC | -0.0968 ± 0.0097 |

| Sequence | PBM E-score of 8-mer |
| --- | --- |
| ACTCGTCA | 0.249 ± 0.025 |
| CTTAGGGA | -0.338 ± 0.028 |
| ACGTGCAT | 0.0826 ± 0.028 |
| CTAGCACA | 0.271 ± 0.018 |
| TTCGACAA | 0.0463 ± 0.082 |
| ACTTCCCC | -0.104 ± 0.046 |
| CCCCAACG | 0.235 ± 0.014 |
| CGAGTAAC | 0.0591 ± 0.04 |
| GGACCCTA | -0.235 ± 0.075 |
| GCTGCGGA | -0.123 ± 0.0085 |
| GTGTATCA | -0.0227 ± 0.0043 |
| CAGCACAC | 0.159 ± 0.0043 |
| ACAACAAG | 0.112 ± 0.015 |
| AGGTCTAA | -0.122 ± 0.0082 |
| ACATGCCC | -0.124 ± 0.0073 |
| CCCGTAGA | -0.323 ± 0.091 |
| ACCACGGT | 0.0372 ± 0.09 |
| ACAATCGC | 0.0999 ± 0.0069 |
| CAAGTCCG | -0.0668 ± 0.092 |
| AAATATGT | 0.0248 ± 0.035 |
| AAAATACT | -0.01 ± 0.08 |
| ATATTCAG | -0.1613 ± 0.0011 |
| CCCACCAG | -0.0304 ± 0.046 |
| ATGAGTCA | -0.0158 ± 0.021 |
| GTCAGCGA | 0.0669 ± 0.036 |

| Sequence | PBM E-score of 8-mer |
| --- | --- |
| AATCAGGG | -0.159 ± 0.025 |
| ACGGGACG | -0.0732 ± 0.09 |
| ATGAATTG | 0.0344 ± 0.13 |
| GCACCCCA | 0.226 ± 0.037 |
| TGTGAACA | 0.445 ± 0.0018 |
| GTGTTGGA | 0.367 ± 0.0068 |
| CACCTTAA | 0.387 ± 0.004 |
| CGGGTCAA | -0.0961 ± 0.032 |
| CATCGTAC | -0.157 ± 0.036 |
| GTCGACAC | 0.394 ± 0.018 |
| TACGTAAA | -0.04 ± 0.0023 |
| AATTATGG | -0.133 ± 0.015 |
| TGGTCAAA | -0.139 ± 0.037 |
| CCAGCCCC | -0.208 ± 0.028 |
| CCGTTAGG | 0.0143 ± 0.029 |
| AGGCCAAT | -0.14 ± 0.032 |
| AGCTAACA | 0.233 ± 0.022 |
| CAATAGAC | -0.0363 ± 0.07 |
| ATCCCTAC | -0.102 ± 0.046 |
| GAGAGGGA | -0.132 ± 0.07 |
| ACATCCCA | 0.113 ± 0.041 |
| AACTAAGG | -0.137 ± 0.037 |
| CGACCCTC | 0.000745 ± 0.071 |
| GGCTTTGA | -0.208 ± 0.027 |
| AAGGCGTG | 0.392 ± 0.037 |

| Sequence | PBM E-score of 8-mer |
| --- | --- |
| GACGCCCA | -0.0155 ± 0.091 |
| AGGCGAAC | 0.0165 ± 0.08 |
| GAGAAGCA | -0.241 ± 0.075 |
| CTAATAAA | -0.155 ± 0.028 |
| CGCGACGA | 0.229 ± 0.034 |
| CAAGCTAG | -0.157 ± 0.011 |
| CAAACACA | 0.182 ± 0.011 |
| AGGTCGCC | 0.0223 ± 0.12 |
| AGAGTAGA | -0.229 ± 0.03 |
| CACGTTCC | 0.124 ± 0.065 |
| ACCGGTTC | -0.0766 ± 0.063 |
| CATCTAGC | -0.0506 ± 0.055 |
| ATGAAGCG | -0.0559 ± 0.013 |
| AAACTTAT | -0.203 ± 0.0048 |
| AGGCAAGA | -0.134 ± 0.02 |
| TGGGTCAA | -0.189 ± 0.023 |
| CTTTATTA | -0.232 ± 0.057 |
| CATCCGCA | -0.00962 ± 0.082 |
| CGACGACG | 0.177 ± 0.013 |
| CGAAAATA | 0.126 ± 0.0045 |
| GAGAGTTA | 0.0121 ± 0.052 |
| ATCTCTTC | -0.0734 ± 0.022 |
